Common to all, as to test: Viability of human cancer cell lines after 72 h of drug (GDSC screen)
Compound in one experiment: COc1cc(N2CCC(C(N)=O)CC2)ccc1Nc1nc(N)c(Cl)c(Nc2ccccc2S(=O)(=O)C(C)C)n1 [HG-5-88-01]
The conditions noted are these: top dose 10 µM; top dose inferred. Here is the method:
(§1)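 Human cancer cell lines in 384-well plates, medium with 10% serum, drug for 72 h over a 256-fold dose range (nine 2-fold or five 4-fold steps up to the top dose). Adherent lines were fixed and stained with the nucleic acid dye Syto60, suspension lines read with resazurin; signal relative to control wells, capped at 0 and 100%. One two-parameter sigmoid per drug and line, fitted in a mixed model over all curves with the slope shared within a line.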

Compound in another experiment: CC/C(=C(\c1ccccc1)c1ccc(OCCN(C)C)cc1)c1ccccc1 [Tamoxifen]
The conditions noted are these: top dose 5 µM. Here is the method:
as §1

Compound in a further experiment: Cc1ccc(NC(=O)c2ccc(CN3CCN(C)CC3)cc2)cc1Nc1nc(-c2cccnc2)cs1 [Masitinib]
The conditions noted are these: top dose 20 µM. The procedure:
as §1

Compound in the next experiment: CCCC(=O)OCc1ccc(OC(=O)/C=C(C)/C=C/C=C(C)/C=C/C2=C(C)CCCC2(C)C)cc1 [VNLG/124]
The conditions noted are these: top dose 5.12 µM; top dose inferred. The procedure:
as §1

Compound in another experiment: O=S(=O)(O)c1ccc2cc(N=Nc3cc(S(=O)(=O)O)c4cccnc4c3O)ccc2c1 [NSC-87877]
The conditions noted are these: top dose 16 µM; top dose inferred. The procedure:
as §1

Compound in the next experiment: O=C(/C=C/c1ccc(CN(CCO)CCc2c[nH]c3ccccc23)cc1)NO [LAQ824]
The conditions noted are these: top dose 1.024 µM; top dose inferred. Here is the method: as §1

Compound in another experiment: O=C(Nc1cccc(Nc2ncc(Br)c(NCCc3cnc[nH]3)n2)c1)N1CCCC1 [BX-912]
The conditions noted are these: top dose 10.24 µM; top dose inferred. Here is the method:
as §1

Compound in a further experiment: Cc1c(N)nc([C@H](CC(N)=O)NC[C@H](N)C(N)=O)nc1C(=O)N[C@H](C(=O)N[C@H](C)[C@@H](O)[C@H](C)C(=O)N[C@H](C(=O)NCCc1nc(-c2nc(C(=O)NCCC[S+](C)C)cs2)cs1)[C@@H](C)O)[C@@H](OC1OC(CO)C(O)C(O)C1OC1OC(CO)C(O)C(OC(N)=O)C1O)c1cnc[nH]1 [Bleomycin]
The procedure: as §1

Compound in the next experiment: O=C(Nc1ccc(OC(F)(F)F)cc1)c1sccc1NCc1ccnc2ccccc12 [OSI-930]
The conditions noted are these: top dose 10.24 µM. The procedure:
as §1

[1] abbreviates: top dose 50 µM, screen: GDSC drug entry 1378, top dose inferred.
Where [2] appears, read: top dose 64 µM, screen: GDSC drug entry 190.

By IC50 is meant the dose at which the fit gives 50% viability; a fit beyond the top or the lowest dose is shown as a bound at that dose. AUC is the area under the same curve over the 256-fold range up to the top dose, as a fraction; values near 1 show little effect. For part of these data: Any top dose called inferred is not printed in the source and was worked back from the curve model. For part of these data: An entry number marks a drug with two screens in the source, which often give different values. Where only a bound is given, the exact number is not on record here.

In the case of ES3 (Ewing sarcoma, adherent), the AUC with HG-5-88-01 amounted to 0.754; with Tamoxifen it was 0.975; with Masitinib, 0.873; with VNLG/124, 0.985; in the experiment with NSC-87877, 0.944; in the experiment with LAQ824 it was 0.545. In addition, the AUC was found to be 0.641 with BX-912, 0.412 with Bleomycin (setting [1]), 0.334 with Bleomycin (setting [2]) and 0.944 with OSI-930. The IC50 is 3.52 µM with HG-5-88-01; over 5 µM in the experiment with Tamoxifen; over 20 µM in the experiment with Masitinib; over 5.12 µM in the experiment with VNLG/124; over 16 µM with NSC-87877; 0.0856 µM with LAQ824. For the same cell line, the IC50 in the experiment with BX-912 is 1.6 µM; in the experiment with Bleomycin (setting [1]), 1.77 µM; with Bleomycin (setting [2]), 1.35 µM; with OSI-930 it was over 10.2 µM.
As to A673 (rhabdomyosarcoma, adherent), the AUC in the experiment with HG-5-88-01 is 0.87; with Tamoxifen, 0.986; with Masitinib it was 0.979; with VNLG/124, 0.984; in the experiment with NSC-87877 it was 0.959; with LAQ824, 0.499. For the same cell line, the AUC worked out at 0.822 with BX-912, 0.547 in the experiment with Bleomycin (setting [1]), 0.663 with Bleomycin (setting [2]) and 0.963 in the experiment with OSI-930. Moreover, the IC50 is 7.7 µM with HG-5-88-01; over 5 µM with Tamoxifen; over 20 µM in the experiment with Masitinib; over 5.12 µM in the experiment with VNLG/124; over 16 µM with NSC-87877; 0.0635 µM in the experiment with LAQ824. Further, the IC50 with BX-912 was 5.2 µM; with Bleomycin (setting [1]), 4.14 µM; with Bleomycin (setting [2]), 10.8 µM; with OSI-930, over 10.2 µM.
In the case of HT-1197 (bladder, adherent), the AUC in the experiment with HG-5-88-01 was determined as 0.89; in the experiment with Tamoxifen it was 0.938; with Masitinib, 0.98; with VNLG/124, 0.981; in the experiment with NSC-87877, 0.977; with LAQ824, 0.4. The AUC with BX-912 came out at 0.983; in the experiment with Bleomycin (setting [1]) it was 0.481; with Bleomycin (setting [2]), 0.458; with OSI-930, 0.959. Also, the IC50 with HG-5-88-01 was over 10 µM; with Tamoxifen it was over 5 µM; with Masitinib it was over 20 µM; with VNLG/124, over 5.12 µM; with NSC-87877, over 16 µM; with LAQ824 it was 0.0324 µM. The IC50 is over 10.2 µM in the experiment with BX-912, 2.75 µM in the experiment with Bleomycin (setting [1]), 3.01 µM with Bleomycin (setting [2]) and over 10.2 µM with OSI-930.
On to H2591 (mesothelioma, adherent), for which the AUC was determined as 0.963 in the experiment with HG-5-88-01; 0.98 with Tamoxifen; 0.915 in the experiment with Masitinib; 0.943 with VNLG/124; 0.98 in the experiment with NSC-87877; 0.503 with LAQ824. In addition, the AUC with BX-912 came to 0.927; with Bleomycin (setting [1]) it was 0.548; with Bleomycin (setting [2]) it was 0.493; in the experiment with OSI-930 it was 0.982. For the same cell line, the IC50 with HG-5-88-01 is over 10 µM; with Tamoxifen, over 5 µM; with Masitinib, over 20 µM; with VNLG/124 it was over 5.12 µM; in the experiment with NSC-87877 it was over 16 µM; in the experiment with LAQ824, 0.0652 µM. For the same cell line, the IC50 with BX-912 is over 10.2 µM; in the experiment with Bleomycin (setting [1]), 4.39 µM; in the experiment with Bleomycin (setting [2]), 3.8 µM; with OSI-930, over 10.2 µM.
Consider SU-DHL-8 (B-cell lymphoma, suspension), for which the AUC worked out at 0.969 in the experiment with HG-5-88-01; 0.981 in the experiment with Tamoxifen; 0.862 with Masitinib; 0.801 with VNLG/124; 0.987 in the experiment with NSC-87877; 0.269 with LAQ824. Further, the AUC with BX-912 was 0.669; in the experiment with Bleomycin (setting [1]) it was 0.969; with Bleomycin (setting [2]), 0.375; with OSI-930, 0.681. In addition, the IC50 with HG-5-88-01 is over 10 µM; in the experiment with Tamoxifen it was over 5 µM; in the experiment with Masitinib, 15.3 µM; with VNLG/124, 2.3 µM; with NSC-87877, over 16 µM; with LAQ824 it was 0.0149 µM. For the same cell line, the IC50 with BX-912 is 1.82 µM; in the experiment with Bleomycin (setting [1]), over 50 µM; in the experiment with Bleomycin (setting [2]) it was 1.85 µM; in the experiment with OSI-930, 1.98 µM.
In the case of Hs-445 (Hodgkin lymphoma, suspension), the AUC is 0.985 with HG-5-88-01; 0.988 with Tamoxifen; 0.883 with Masitinib; 0.989 with VNLG/124; 0.974 with NSC-87877; 0.386 with LAQ824. The AUC with BX-912 was 0.758; with Bleomycin (setting [1]), 0.565; with Bleomycin (setting [2]) it was 0.237; with OSI-930, 0.951. The IC50 was over 10 µM in the experiment with HG-5-88-01; over 5 µM with Tamoxifen; 18.5 µM in the experiment with Masitinib; over 5.12 µM with VNLG/124; over 16 µM in the experiment with NSC-87877; 0.032 µM in the experiment with LAQ824. The IC50 with BX-912 was 3.31 µM; in the experiment with Bleomycin (setting [1]) it was 4.63 µM; in the experiment with Bleomycin (setting [2]), 0.745 µM; with OSI-930 it was over 10.2 µM.

Source of the values: the supplement of paper PMC4967469.
